Reference: publication PMC10368727, “Sequestration of histidine kinases by non-cognate response regulators establishes a threshold level of stimulation for bacterial two-component signaling” (Nature Communications, 2023)

Target: T1, response regulator NarL (M. tuberculosis, UniProt P9WGM5 1-216)
T1 construct: also called non-cognate RR NarL
T1 sequence: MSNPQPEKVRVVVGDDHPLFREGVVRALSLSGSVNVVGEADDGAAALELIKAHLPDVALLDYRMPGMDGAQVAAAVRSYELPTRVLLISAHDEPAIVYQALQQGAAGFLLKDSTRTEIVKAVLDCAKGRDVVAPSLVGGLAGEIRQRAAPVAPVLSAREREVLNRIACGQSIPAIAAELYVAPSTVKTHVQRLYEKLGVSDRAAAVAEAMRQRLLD
Assay: ITC
Details: both partners purified

B1: MtrB~P (phosphorylated MtrB, cytosolic catalytic domain) as used in ITC (domain or fragment)
chain: SRQVVVPVRSASRIAERFAEGHLSERMPVRGEDDMARLAVSFNDMAESLSRQIAQLEEFGNLQRRFTSDVSHELRTPLTTVRMAADLIYDHSADLDPTLRRSTELMVSELDRFETLLNDLLEISRHDAGVAELSVEAVDLRTTVNNALGNVGHLAEEAGIELLVDLPAEQVIAEVDARRVERILRNLIANAIDHAEHKPVRIRMAADEDTVAVTVRDYGVGLRPGEEKLVFSRFWRSDPSRVRRSGGTGLGLAISVEDARLHQGRLEAWGEPGEGACFRLTLPMVRGHKVTTSPLPMKPIPQPVLQPVAQPNPQPMPPEYKERQRPREHAEWSG
notes: also called phosphorylated HK MtrB
With B1 the “fold higher affinity than for MtrA” value was ~3 fold.
